Data reported in the supplement of paper PMC8728848.
The other results are listed elsewhere or left out.

Assays:
Experiment in all cases: glycan array binding signal (z-score within array); higher = stronger binding
Conditions in all cases: glycan notation: IUPAC condensed, linker removed
[1] = target: Gal(b1-4)GlcNAc(b1-3)Gal(b1-4)GlcNAc(b1-3)Gal(b1-4)GlcNAc(b1-2)[Gal(b1-4)GlcNAc(b1-3)Gal(b1-4)GlcNAc(b1-3)Gal(b1-4)GlcNAc(b1-6)]Man(a1-6)[Gal(b1-4)GlcNAc(b1-3)Gal(b1-4)GlcNAc(b1-3)Gal(b1-4)GlcNAc(b1-2)Man(a1-3)]Man(b1-4)GlcNAc(b1-4)[Fuc(a1-6)]GlcNAc
How it was run: (§1)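 Glycan array data came from 3228 arrays in the Consortium for Functional Glycomics database, and only arrays with an available protein sequence were kept. Glycan names were put into IUPAC-condensed notation, and columns mapping to the same glycan were averaged. The binding signal is a within-array Z-score, averaged across arrays of one protein sequence run at different concentrations or buffers and across linkers. A negative Z-score can be read as non-binding.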

[2] = target: Gal(b1-4)GlcNAc(b1-3)Gal(b1-4)GlcNAc(b1-3)Gal(b1-4)GlcNAc(b1-3)Gal(b1-4)GlcNAc(b1-2)Man(a1-3)[Gal(b1-4)GlcNAc(b1-3)Gal(b1-4)GlcNAc(b1-3)Gal(b1-4)GlcNAc(b1-3)Gal(b1-4)GlcNAc(b1-2)Man(a1-6)]Man(b1-4)GlcNAc(b1-4)GlcNAc
How it was run: as §1

[3] = target: Gal(b1-4)GlcNAc(b1-3)Gal(b1-4)GlcNAc(b1-3)Gal(b1-4)GlcNAc(b1-3)Gal(b1-4)GlcNAc(b1-2)Man(a1-3)[Gal(b1-4)GlcNAc(b1-3)Gal(b1-4)GlcNAc(b1-3)Gal(b1-4)GlcNAc(b1-3)Gal(b1-4)GlcNAc(b1-2)Man(a1-6)]Man(b1-4)GlcNAc(b1-4)[Fuc(a1-6)]GlcNAc
How it was run: as §1

[4] = target: Gal(b1-4)GlcNAc(b1-3)Gal(b1-4)GlcNAc(b1-3)Gal(b1-4)GlcNAc(b1-3)Gal(b1-4)GlcNAc(b1-2)[Gal(b1-4)GlcNAc(b1-3)Gal(b1-4)GlcNAc(b1-3)Gal(b1-4)GlcNAc(b1-3)Gal(b1-4)GlcNAc(b1-6)]Man(a1-6)[Gal(b1-4)GlcNAc(b1-3)Gal(b1-4)GlcNAc(b1-3)Gal(b1-4)GlcNAc(b1-3)Gal(b1-4)GlcNAc(b1-2)Man(a1-3)]Man(b1-4)GlcNAc(b1-4)[Fuc(a1-6)]GlcNAc
How it was run: as §1

[5] = target: Gal(b1-4)GlcNAc(b1-3)Gal(b1-4)GlcNAc(b1-3)Gal(b1-4)GlcNAc(b1-3)Gal(b1-4)GlcNAc(b1-3)Gal(b1-4)GlcNAc(b1-2)Man(a1-3)[Gal(b1-4)GlcNAc(b1-3)Gal(b1-4)GlcNAc(b1-3)Gal(b1-4)GlcNAc(b1-3)Gal(b1-4)GlcNAc(b1-3)Gal(b1-4)GlcNAc(b1-2)Man(a1-6)]Man(b1-4)GlcNAc(b1-4)GlcNAc
How it was run: as §1

[6] = target: Gal(b1-4)GlcNAc(b1-3)Gal(b1-4)GlcNAc(b1-3)Gal(b1-4)GlcNAc(b1-3)Gal(b1-4)GlcNAc(b1-3)Gal(b1-4)GlcNAc(b1-2)Man(a1-3)[Gal(b1-4)GlcNAc(b1-3)Gal(b1-4)GlcNAc(b1-3)Gal(b1-4)GlcNAc(b1-3)Gal(b1-4)GlcNAc(b1-3)Gal(b1-4)GlcNAc(b1-2)Man(a1-6)]Man(b1-4)GlcNAc(b1-4)[Fuc(a1-6)]GlcNAc
How it was run: as §1

[7] = target: Gal(b1-4)GlcNAc(b1-3)Gal(b1-4)GlcNAc(b1-3)Gal(b1-4)GlcNAc(b1-3)Gal(b1-4)GlcNAc(b1-3)Gal(b1-4)GlcNAc(b1-2)[Gal(b1-4)GlcNAc(b1-3)Gal(b1-4)GlcNAc(b1-3)Gal(b1-4)GlcNAc(b1-3)Gal(b1-4)GlcNAc(b1-3)Gal(b1-4)GlcNAc(b1-6)]Man(a1-6)[Gal(b1-4)GlcNAc(b1-3)Gal(b1-4)GlcNAc(b1-3)Gal(b1-4)GlcNAc(b1-3)Gal(b1-4)GlcNAc(b1-3)Gal(b1-4)GlcNAc(b1-2)Man(a1-3)]Man(b1-4)GlcNAc(b1-4)[Fuc(a1-6)]GlcNAc
How it was run: as §1

[8] = target: Gal(b1-4)GlcNAc(b1-3)Gal(b1-4)GlcNAc(b1-3)Gal(b1-4)GlcNAc(b1-3)Gal(b1-4)GlcNAc(b1-3)Gal(b1-4)GlcNAc(b1-3)Gal(b1-4)GlcNAc(b1-2)Man(a1-3)[Gal(b1-4)GlcNAc(b1-3)Gal(b1-4)GlcNAc(b1-3)Gal(b1-4)GlcNAc(b1-3)Gal(b1-4)GlcNAc(b1-3)Gal(b1-4)GlcNAc(b1-3)Gal(b1-4)GlcNAc(b1-2)Man(a1-6)]Man(b1-4)GlcNAc(b1-4)GlcNAc
How it was run: as §1

[9] = target: Gal(b1-4)GlcNAc(b1-3)Gal(b1-4)GlcNAc(b1-3)GalNAc
How it was run: as §1

[10] = target: Gal(b1-4)GlcNAc(b1-3)Gal(b1-4)GlcNAc(b1-3)[Gal(b1-4)GlcNAc(b1-3)Gal(b1-4)GlcNAc(b1-6)]GalNAc
How it was run: as §1

[11] = target: Gal(b1-4)GlcNAc(b1-3)Gal(b1-4)GlcNAc(b1-6)[Gal(b1-3)]GalNAc
How it was run: as §1

[12] = target: Gal(b1-4)GlcNAc(b1-3)Gal(b1-4)[Fuc(a1-3)]GlcNAc(b1-3)Gal(b1-4)[Fuc(a1-3)]GlcNAc
How it was run: as §1

[13] = target: Gal(b1-4)GlcNAc(b1-3)GalNAc
How it was run: as §1

[14] = target: Gal(b1-4)GlcNAc(b1-3)[Fuc(a1-3)GlcNAc(b1-6)]Gal(b1-4)Glc
How it was run: as §1

[15] = target: Gal(b1-4)GlcNAc(b1-3)[Gal(b1-4)GlcNAc(b1-6)]Gal(b1-4)GlcNAc
How it was run: as §1

[16] = target: Gal(b1-4)GlcNAc(b1-3)[Gal(b1-4)GlcNAc(b1-6)]GalNAc
How it was run: as §1

[17] = target: Gal(b1-4)GlcNAc(b1-3)[GlcNAc(b1-6)]Gal(b1-4)GlcNAc
How it was run: as §1

[18] = target: Gal(b1-4)GlcNAc(b1-6)Gal(b1-4)GlcNAc
How it was run: as §1

[19] = target: Gal(b1-4)GlcNAc(b1-6)Gal(b1-4)GlcNAc(b1-6)GalNAc
How it was run: as §1

B1: CSA (Cytisus scoparius), P29257 (protein)
chain: SEELSFSFTKFKTDQKNLILQRDALITPTGKLQLTTVENGKPAAYSLGRALYSTPIHIWDKSTGDEASFATFFSFVISDAPNPSTAATDGLAFFLAPADTQPQSAGGYLGLFEKDSSYNSSNQIVAVEFDTYYNSAWDPQTNPHIGIDVNTIKSKKVSSWGFKNGNVATVLITYQPSSKSLVASLVYPSGQTSDKTSYIISANVDLKATVPEWVRIGFSATTGQTDNYIETHDILSWSFKSKLPATKN
[1]
  glycan array binding signal (z-score): 0.479
[2]
  glycan array binding signal (z-score): 0.39
[3]
  glycan array binding signal (z-score): 0.228
[4]
  glycan array binding signal (z-score): 0.826
[5]
  glycan array binding signal (z-score): 0.143
[6]
  glycan array binding signal (z-score): 0.194
[7]
  glycan array binding signal (z-score): 0.764
[8]
  glycan array binding signal (z-score): 0.099
[9]
  glycan array binding signal (z-score): 0.306
[10]
  glycan array binding signal (z-score): 0.354
[11]
  glycan array binding signal (z-score): 0.159
[12]
  glycan array binding signal (z-score): -0.174
[13]
  glycan array binding signal (z-score): -0.162
[14]
  glycan array binding signal (z-score): -0.13
[15]
  glycan array binding signal (z-score): -0.11
[16]
  glycan array binding signal (z-score): -0.003
[17]
  glycan array binding signal (z-score): -0.229
[18]
  glycan array binding signal (z-score): -0.15
[19]
  glycan array binding signal (z-score): -0.078
